Test results reported in PMC4336329 (PLoS ONE, 2015).
Out of some 310,000 compounds screened, about 2,200 (0.71%) showed an effect of 50% or more. Effects have a minus sign here. The list shows a part of the results.

What follows are compounds tested against human ether-à-go-go-related gene (hERG) potassium channel (human, UniProt Q12809) (assay: primary screen, population patch clamp on CHO cells stably expressing hERG).
human ether-à-go-go-related gene (hERG) potassium channel, sequence (Q12809 whole entry, looked up): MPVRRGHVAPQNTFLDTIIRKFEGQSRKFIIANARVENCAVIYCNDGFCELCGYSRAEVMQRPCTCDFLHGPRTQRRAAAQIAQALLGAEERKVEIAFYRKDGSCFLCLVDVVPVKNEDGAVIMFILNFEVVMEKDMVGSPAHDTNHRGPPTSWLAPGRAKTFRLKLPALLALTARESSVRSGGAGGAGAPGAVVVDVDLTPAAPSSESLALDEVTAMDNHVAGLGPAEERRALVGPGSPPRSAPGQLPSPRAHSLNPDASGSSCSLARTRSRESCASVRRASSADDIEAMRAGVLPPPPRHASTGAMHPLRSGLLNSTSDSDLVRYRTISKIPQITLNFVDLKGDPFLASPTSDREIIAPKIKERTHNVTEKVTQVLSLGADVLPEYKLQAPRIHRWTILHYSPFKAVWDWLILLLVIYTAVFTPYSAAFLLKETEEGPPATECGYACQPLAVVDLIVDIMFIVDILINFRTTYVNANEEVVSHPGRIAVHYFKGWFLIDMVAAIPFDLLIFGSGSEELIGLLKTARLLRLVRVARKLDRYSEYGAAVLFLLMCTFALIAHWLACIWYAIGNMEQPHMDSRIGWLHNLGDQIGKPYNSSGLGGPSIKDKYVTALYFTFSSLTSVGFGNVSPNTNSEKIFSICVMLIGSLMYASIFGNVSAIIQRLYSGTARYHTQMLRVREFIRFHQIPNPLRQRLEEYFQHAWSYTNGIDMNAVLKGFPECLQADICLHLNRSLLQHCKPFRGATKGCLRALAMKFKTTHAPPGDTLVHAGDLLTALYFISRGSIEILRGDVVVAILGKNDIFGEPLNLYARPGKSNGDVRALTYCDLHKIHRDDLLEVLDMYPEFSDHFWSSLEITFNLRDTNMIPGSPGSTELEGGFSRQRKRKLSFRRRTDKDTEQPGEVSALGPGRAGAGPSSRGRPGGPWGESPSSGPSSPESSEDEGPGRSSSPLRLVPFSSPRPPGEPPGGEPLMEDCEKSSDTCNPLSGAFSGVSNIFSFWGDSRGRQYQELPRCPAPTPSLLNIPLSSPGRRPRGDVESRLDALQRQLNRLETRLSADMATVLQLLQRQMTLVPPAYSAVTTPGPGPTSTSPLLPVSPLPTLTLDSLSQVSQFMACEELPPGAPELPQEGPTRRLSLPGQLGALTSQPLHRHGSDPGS

Compound | hERG current change (%, negative = inhibition) at 1uM
COc1cc(CC(NC(C)=O)C(=O)NC2CCN(C(=O)Nc3ccc(C)cc3)CC2)cc(OC)c1 (centres unmarked) | 9.36%
CC(C)c1ccc(CNC(=O)CSCC(=O)Nc2ccc3ccccc3c2)cc1 | 9.73%
COc1ccc(OC)c(NC(=O)CCN2CCC(C)CC2)c1.Cl | 13.9%
CC(C)Sc1nc2ccc(N3C(=O)C4CCCCC4C3=O)cc2s1 (centres unmarked) | -6.86%
COCCNC(=O)CCCn1c(=O)c2ccccc2n(Cc2cccc([N+](=O)[O-])c2)c1=O | 7.67%
CCCNC(=S)Nc1ccc2nc(-c3ccccn3)c(-c3ccccn3)nc2c1 | 13.4%
Cc1ccc(-n2ncc(C(=O)N3CCN(C(=O)c4ccco4)CC3)c2-n2cccc2)cc1 | 11.2%
O=C(CNC(c1ccccc1)c1ccccc1)Nc1ccccc1F | 15.6%
Cc1ccc(C(=O)NC(C)c2ccc(-n3ccnc3)cc2)cc1S(=O)(=O)N1CCOCC1 (centres unmarked) | -23.4%
COC(=O)C(NC(C)=O)(Nc1nc2c(s1)CCCC2)C(F)(F)F (centres unmarked) | 5.1%
CCSc1nc2c(c(=O)[nH]c(=O)n2C)n1CC(O)COc1ccccc1C (centres unmarked) | 6.8%
CC(=O)OC1(c2ccccc2)CCN(C2CCCCC2)CC1C.Cl (centres unmarked) | -5.77%
COc1ccccc1NC(=O)c1ccc(NC(=O)CN(C)Cc2ccccc2F)cc1 | 13.2%
N/C(=N\OC(=O)Cc1ccccc1)c1ccc([N+](=O)[O-])cc1 | 9.05%
COc1cc(C2=NOC(C(=O)Nc3ccc(C(C)=O)cc3)C2)cc(OC)c1OC (centres unmarked) | 7.62%
COc1ccc(C(=O)CN2C(=O)NC3(CCCc4ccccc43)C2=O)c(OC)c1 (centres unmarked) | 18.5%
Clc1ccc(-c2nc(C3CCCCC3)no2)cc1 | 14.6%
O=C(NCC12CC3CC(CC(C3)C1)C2)c1cc2n(n1)C(C(F)(F)F)CC(c1ccco1)N2 (centres unmarked) | 4.12%
CC(=O)c1ccc(C(=O)N2CCCC(C(=O)c3cc(F)ccc3F)C2)s1 (centres unmarked) | 9%
CCOC(=O)c1ccc(N2C(=O)CC(N3CCC(O)(c4ccc(Cl)cc4)CC3)C2=O)cc1 (centres unmarked) | 11.3%
N#Cc1cc2c(nc1SCc1cccnc1)CCCCC2 | 6.53%
COc1ccccc1N=c1oc2cc(O)ccc2cc1C(=O)NCC1CCCO1 (centres unmarked) | 5.19%
O=C(NCc1ccccc1)C1CCN(S(=O)(=O)N2CCOCC2)CC1 | 1.6%

Compound | hERG current change (%, negative = inhibition) at 1uM
O=C(Nc1ccc(S(=O)(=O)N2CCCCC2)cc1)c1ccc(CN2CCc3ccccc3C2)cc1 | 8.4%
O=C(Nc1cccc(/C=C/c2nc3ccccc3c(=O)[nH]2)c1)c1ccccc1Cl | -3.57%
COc1ccc(C(=O)N2CCCC(Nc3ccc(F)c(F)c3)C2)c(OC)n1 (centres unmarked) | 19.8%
CCOC(=O)C1C(=O)Nc2nc3ccccc3n2C1C(C)C (centres unmarked) | -2.15%
CCC(=O)NC(=S)NNC(=O)c1ccc(O)cc1 | 14.5%
CC(Sc1nc2ccccc2c(=O)n1CC1CCCO1)C(=O)NC(C)c1ccccc1 (centres unmarked) | 5.74%
Nn1c(SCC(=O)Nc2ccc3c(c2)OCO3)nnc1-c1ccccc1 | -1.21%
Cn1c(NCCCN2CCOCC2)nc2c1c(=O)n(Cc1ccc(Cl)cc1)c(=O)n2C | -1.96%
CCn1cnc2c(cnn2-c2ccccc2)c1=O | 14.3%
O=C(Nc1ccncc1)c1cc(-c2cccc(Br)c2)nc2ccccc12 | 6.75%
O=C(CS(=O)(=O)c1ccccc1)Nc1nnc(-c2cccs2)o1 | 8.66%
Nc1nonc1-n1nnc(C(=O)N/N=C/C=C/c2ccccc2)c1CSC1=NCCS1 | 3.57%
Cc1ccccc1CC1(CO)CCCN(C(=O)Cc2c(F)ccc(F)c2F)C1 (centres unmarked) | 14.9%
CCOC(=O)CNC(=O)CSc1nnc(NC(=O)c2ccccc2Cl)s1 | 13.9%
O=S(=O)(N1CCCCCC1)N1CCN(S(=O)(=O)N2CCCCC2)CC1 | -7.57%
CCCCCCC(=O)Nc1nnc(CC)s1 | 2.95%
CCOC(=O)N1CCN(C(=O)C2CCN(S(=O)(=O)c3ccc(C)cc3)CC2)CC1 | 1.63%
O=C(NCc1ccccn1)Nc1ccccc1F | 15.7%
CC(CCc1ccccc1)N1CCN(C)CC1 (centres unmarked) | 6.6%
COc1ccc(C2=NOC(C)(c3nnc(-c4ccc(Cl)cc4)o3)C2)cc1 (centres unmarked) | -15%
O=C(O)COc1ccc(/C=C/c2ccc3cccc([N+](=O)[O-])c3n2)cc1 | 4.28%
CCCn1c(SCC(=O)Nc2c(CC)cccc2CC)nnc1C(C)C | 11.8%
Cc1cccc(C)c1N(CC(=O)N/N=C/c1cc(Br)c(C)o1)S(C)(=O)=O | 0.352%

Compound | hERG current change (%, negative = inhibition) at 1uM
COc1cc(/C=N/NS(=O)(=O)c2ccc(C)cc2)ccc1OCc1ccc(C(=O)O)cc1 | 1.13%
CCOC(=O)C(=O)Nc1ccc(F)cc1 | 9.9%
CCC(C)CN1CCC(CO)(Cc2ccccc2Cl)CC1 (centres unmarked) | -1.97%
CC(C)Nc1nc(NC(C)(C)C)nc(Oc2ccc(=O)n(C)n2)n1 | -2.23%
O=C1CCCc2ccccc2N1Cc1ccc(F)cc1 | 15%
c1ccc2cc3[nH]c(CN4CCOCC4)nc3cc2c1 | 9.64%
Cc1cccc(C(=O)OCC(=O)N(C)c2ccccc2)c1C | 5.54%
CCC(=O)NCCc1nc2ccccc2n1CC | 15%
Fc1ccc(NC(=S)NC2CCN(Cc3ccccc3)CC2)cc1 | 6.75%
O=C(/C=C/c1ccccc1[N+](=O)[O-])NCCN1C(=O)S/C(=C\c2ccc(F)cc2)C1=O | 13.3%
O=C1CSC2(CCCCC2)N1CCO | 12.4%
Cc1cc(C)c2c(N)c(C(=O)NC3CC3)sc2n1 | 7.69%
O=C(OCCNC(=O)c1ccc2ccccc2n1)c1ccc(F)cc1 | 4.77%
COc1ccc(C(=O)NNC(=O)CSc2nnc(C)n2CC2CCCO2)cc1 (centres unmarked) | 13.2%
O=C(COc1ccc(Cl)cc1)N1CCN(S(=O)(=O)c2ccccc2)CC1 | -13.2%
NC(=O)Cc1nc2scc(-c3ccc(Cl)cc3)c2c(=O)[nH]1 | 6.36%
O=C(Oc1ccnc2cc(Cl)ccc12)N1CCOCC1 | 6.64%
O=C(CN(Cc1ccc(Cl)cc1)S(=O)(=O)c1ccccc1)NCC1CCCO1 (centres unmarked) | 6.36%
CCOc1nc(C)cc(COC)c1C(N)=O | 2.79%
COC(=O)[C@@H]1C[C@@]2(O)[C@H](O)[C@H](O)[C@H](O)C[C@H]2N1Cc1ccc(C(C)(C)C)cc1 | 14.7%
COc1ccccc1OCc1ccc(C(=O)N2CCN(C)CC2)o1 | 0.39%
NCCCC[C@H]1CNC(=S)N1CC1CCCCC1 | 16.9%
CC(C)Cn1c(N)c(C(=O)COC(=O)Cc2cccc(C(F)(F)F)c2)c(=O)n(C)c1=O | -6.75%

Compound | hERG current change (%, negative = inhibition) at 1uM
CC(C)OCCCNC(=O)C1CCC(=O)N1C(C)C (centres unmarked) | -1.9%
COc1ccc(N2C(=O)[C@@H]3C(c4cccnc4)=NO[C@@H]3C2=O)cc1 | 11.7%
CCCn1nnc(NC(=S)NC(=O)c2cccs2)n1 | 3.69%
COc1cc(/C=N/NC(=O)C(Cc2c[nH]c3ccccc23)NC(=O)OCc2ccccc2)cc([N+](=O)[O-])c1O (centres unmarked) | 7.07%
C=CCN(CC=C)CCOc1ccc2ccccc2c1.O=C(O)C(=O)O | 2.75%
Cc1[nH]c(=S)c(C#N)c(C)c1CC(=O)c1ccc(Br)cc1 | 12.7%
CS(=O)(=O)N(CC(=O)NC1CCCC1)c1cccc(F)c1 | -11.5%
N=c1oc2ccc3ccccc3c2cc1-c1nc(-c2ccccc2)cs1 | 5.75%
O=CN1CCN(C(=O)c2cc3cc(Cl)ccc3[nH]2)CC1 | 5.52%
CC1=CS/C(=C(/C#N)C(=O)N2CCOCC2)N1c1ccccc1 | 13.9%
COc1ccc(-c2ncn(CCC#N)c2[N+](=O)[O-])cc1 | 9.08%
COc1cccc(-n2nnc3c(=O)n(CC(=O)Nc4cc(C)on4)cnc32)c1 | 16%
CSc1cccc(NC(=S)N(CCC(C)C)C2CCN(C(C)=O)CC2)c1 | 0.742%
O=C(CN(Cc1ccccc1)S(=O)(=O)c1ccc(F)cc1)NCc1cccnc1 | -31.9%
C=CCN(c1ccccc1)S(=O)(=O)c1cccc(C(=O)OCC(=O)NCCOC)c1 | 2.49%
Cc1cc(=O)n2nc(N3CCCC(C(=O)NCc4cccc(Cl)c4)C3)sc2n1 (centres unmarked) | -14.9%
Cc1ccc(S(=O)(=O)Nc2cccc(C(=O)N3CCN(c4ccccc4O)CC3)c2)cc1F | 1.17%
Cc1ccnc(SCCn2c(N(C)Cc3ccccc3)nc3c2c(=O)n(C)c(=O)n3C)n1 | 0.694%
CC(C)(C)c1ccc(OCC(=O)NNC(=O)C2CCCO2)cc1 (centres unmarked) | 11.5%
O=C(NCc1ccco1)c1ccc2nccnc2c1 | -24.1%
